Measured values reported in the supplement of paper PMC8728848.
Some of the results follow.

How the values were obtained:
Test in all cases: glycan array binding signal (z-score within array); higher = stronger binding
Settings in all cases: glycan notation: IUPAC condensed, linker removed
[1] = molecular target: Neu5Ac(a2-3)Gal(b1-4)GlcNAc(b1-2)Man(a1-3)[Neu5Ac(a2-3)Gal(b1-4)GlcNAc(b1-2)Man(a1-6)]Man(b1-4)GlcNAc(b1-4)[Fuc(a1-6)]GlcNAc
Summary of the method: (§1)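 Glycan array data came from 3228 arrays in the Consortium for Functional Glycomics database, and only arrays with an available protein sequence were kept. Glycan names were put into IUPAC-condensed notation, and columns mapping to the same glycan were averaged. The binding signal is a within-array Z-score, averaged across arrays of one protein sequence run at different concentrations or buffers and across linkers. A negative Z-score can be read as non-binding.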

[2] = molecular target: Neu5Ac(a2-3)Gal(b1-4)GlcNAc(b1-2)Man(a1-3)[Neu5Ac(a2-6)Gal(b1-4)GlcNAc(b1-2)Man(a1-6)]Man(b1-4)GlcNAc(b1-4)GlcNAc
Summary of the method: as §1

[3] = molecular target: Neu5Ac(a2-3)Gal(b1-4)GlcNAc(b1-2)[Neu5Ac(a2-3)Gal(b1-4)GlcNAc(b1-4)]Man(a1-3)[GlcNAc(b1-4)][Neu5Ac(a2-3)Gal(b1-4)GlcNAc(b1-2)[Neu5Ac(a2-3)Gal(b1-4)GlcNAc(b1-6)]Man(a1-6)]Man(b1-4)GlcNAc(b1-4)GlcNAc
Summary of the method: as §1

[4] = molecular target: Neu5Ac(a2-3)Gal(b1-4)GlcNAc(b1-2)[Neu5Ac(a2-3)Gal(b1-4)GlcNAc(b1-4)]Man(a1-3)[GlcNAc(b1-4)][Neu5Ac(a2-3)Gal(b1-4)GlcNAc(b1-4)Man(a1-6)]Man(b1-4)GlcNAc(b1-4)GlcNAc
Summary of the method: as §1

[5] = molecular target: Neu5Ac(a2-3)Gal(b1-4)GlcNAc(b1-2)[Neu5Ac(a2-3)Gal(b1-4)GlcNAc(b1-6)]Man(a1-6)[Neu5Ac(a2-3)Gal(b1-4)GlcNAc(b1-2)Man(a1-3)]Man(b1-4)GlcNAc(b1-4)GlcNAc
Summary of the method: as §1

[6] = molecular target: Neu5Ac(a2-3)Gal(b1-4)GlcNAc(b1-2)[Neu5Ac(a2-3)Gal(b1-4)GlcNAc(b1-6)]Man(a1-6)[Neu5Ac(a2-3)Gal(b1-4)GlcNAc(b1-2)Man(a1-3)][GlcNAc(b1-4)]Man(b1-4)GlcNAc(b1-4)GlcNAc
Summary of the method: as §1

[7] = molecular target: Neu5Ac(a2-3)Gal(b1-4)GlcNAc(b1-3)Gal
Summary of the method: as §1

[8] = molecular target: Neu5Ac(a2-3)Gal(b1-4)GlcNAc(b1-3)Gal(b1-3)GlcNAc
Summary of the method: as §1

[9] = molecular target: Neu5Ac(a2-3)Gal(b1-4)GlcNAc(b1-3)Gal(b1-4)GlcNAc
Summary of the method: as §1

[10] = molecular target: Neu5Ac(a2-3)Gal(b1-4)GlcNAc(b1-3)Gal(b1-4)GlcNAc(b1-2)Man(a1-3)[Neu5Ac(a2-3)Gal(b1-4)GlcNAc(b1-3)Gal(b1-4)GlcNAc(b1-2)Man(a1-6)]Man(b1-4)GlcNAc(b1-4)GlcNAc
Summary of the method: as §1

[11] = molecular target: Neu5Ac(a2-3)Gal(b1-4)GlcNAc(b1-3)Gal(b1-4)GlcNAc(b1-3)Gal(b1-4)GlcNAc
Summary of the method: as §1

[12] = molecular target: Neu5Ac(a2-3)Gal(b1-4)GlcNAc(b1-3)Gal(b1-4)GlcNAc(b1-3)Gal(b1-4)GlcNAc(b1-2)Man(a1-3)[Neu5Ac(a2-3)Gal(b1-4)GlcNAc(b1-3)Gal(b1-4)GlcNAc(b1-3)Gal(b1-4)GlcNAc(b1-2)Man(a1-6)]GalNAc
Summary of the method: as §1

[13] = molecular target: Neu5Ac(a2-3)Gal(b1-4)GlcNAc(b1-3)Gal(b1-4)GlcNAc(b1-3)GalNAc
Summary of the method: as §1

[14] = molecular target: Neu5Ac(a2-3)Gal(b1-4)GlcNAc(b1-3)Gal(b1-4)GlcNAc(b1-3)[Neu5Ac(a2-3)Gal(b1-4)GlcNAc(b1-3)Gal(b1-4)GlcNAc(b1-6)]GalNAc
Summary of the method: as §1

[15] = molecular target: Neu5Ac(a2-3)Gal(b1-4)GlcNAc(b1-3)Gal(b1-4)GlcNAc(b1-6)[Gal(b1-3)]GalNAc
Summary of the method: as §1

[16] = molecular target: Neu5Ac(a2-3)Gal(b1-4)GlcNAc(b1-3)Gal(b1-4)[Fuc(a1-3)]GlcNAc
Summary of the method: as §1

[17] = molecular target: Neu5Ac(a2-3)Gal(b1-4)GlcNAc(b1-3)GalNAc
Summary of the method: as §1

[18] = molecular target: Neu5Ac(a2-3)Gal(b1-4)GlcNAc(b1-3)[Neu5Ac(a2-3)Gal(b1-4)GlcNAc(b1-6)]GalNAc
Summary of the method: as §1

[19] = molecular target: Neu5Ac(a2-3)Gal(b1-4)GlcNAc(b1-6)GalNAc
Summary of the method: as §1

[20] = molecular target: Neu5Ac(a2-3)Gal(b1-4)GlcNAc(b1-6)[Gal(b1-3)]GalNAc
Summary of the method: as §1

[21] = molecular target: Neu5Ac(a2-3)Gal(b1-4)GlcNAc(b1-6)[Neu5Ac(a2-3)Gal(b1-3)]GalNAc
Summary of the method: as §1

[22] = molecular target: Neu5Ac(a2-3)Gal(b1-4)GlcNAc6S
Summary of the method: as §1

[23] = molecular target: Neu5Ac(a2-3)Gal(b1-4)[Fuc(a1-3)]GlcNAc
Summary of the method: as §1

[24] = molecular target: Neu5Ac(a2-3)Gal(b1-4)[Fuc(a1-3)]GlcNAc(b1-2)Man
Summary of the method: as §1

[25] = molecular target: Neu5Ac(a2-3)Gal(b1-4)[Fuc(a1-3)]GlcNAc(b1-3)Gal
Summary of the method: as §1

[26] = molecular target: Neu5Ac(a2-3)Gal(b1-4)[Fuc(a1-3)]GlcNAc(b1-3)Gal(b1-4)GlcNAc
Summary of the method: as §1

[27] = molecular target: Neu5Ac(a2-3)Gal(b1-4)[Fuc(a1-3)]GlcNAc(b1-3)Gal(b1-4)[Fuc(a1-3)]GlcNAc(b1-3)Gal(b1-4)[Fuc(a1-3)]GlcNAc
Summary of the method: as §1

[28] = molecular target: Neu5Ac(a2-3)Gal(b1-4)[Fuc(a1-3)]GlcNAc(b1-3)GalNAc
Summary of the method: as §1

[29] = molecular target: Neu5Ac(a2-3)Gal(b1-4)[Fuc(a1-3)]GlcNAc(b1-6)[Gal(b1-3)]GalNAc
Summary of the method: as §1

[30] = molecular target: Neu5Ac(a2-3)Gal(b1-4)[Fuc(a1-3)]GlcNAc(b1-6)[Neu5Ac(a2-3)Gal(b1-3)]GalNAc
Summary of the method: as §1

[31] = molecular target: Neu5Ac(a2-3)Gal(b1-4)[Fuc(a1-3)]GlcNAc6S
Summary of the method: as §1

[32] = molecular target: Neu5Ac(a2-3)Gal6S(b1-4)GlcNAc
Summary of the method: as §1

[33] = molecular target: Neu5Ac(a2-3)Gal6S(b1-4)[Fuc(a1-3)]GlcNAc
Summary of the method: as §1

Neu5Ac(a2-3)GalNAc = molecular target: Neu5Ac(a2-3)GalNAc
Summary of the method: as §1

[34] = molecular target: Neu5Ac(a2-3)GalNAc(b1-4)GlcNAc
Summary of the method: as §1

[35] = molecular target: Neu5Ac(a2-3)[GalNAc(b1-4)]Gal(b1-4)Glc
Summary of the method: as §1

[36] = molecular target: Neu5Ac(a2-3)[GalNAc(b1-4)]Gal(b1-4)GlcNAc
Summary of the method: as §1

B1: OrysaEULS2 (Oryza sativa) (protein)
chain: MVYCRANPNYAMTARNGAVVLAPANPKDEYQHWIKDMRWSTSIKDEEGYPAFALVNKATGQAIKHSLGQSHPVRLVPYNPEVMDESVLWTESRDVGNGFRCIRMVNNIYLNFDAFHGDKYHGGVRDGTDIVLWKWCEGDNQRWKIQPYYILEQKLISEEDLNSAVDHHHHHH
[1]
  glycan array binding signal (z-score): -0.057
[2]
  glycan array binding signal (z-score): 1.04
[3]
  glycan array binding signal (z-score): -0.243
[4]
  glycan array binding signal (z-score): -0.273
[5]
  glycan array binding signal (z-score): 0.194
[6]
  glycan array binding signal (z-score): -0.099
[7]
  glycan array binding signal (z-score): -0.196
[8]
  glycan array binding signal (z-score): -0.192
[9]
  glycan array binding signal (z-score): -0.222
[10]
  glycan array binding signal (z-score): 0.115
[11]
  glycan array binding signal (z-score): -0.187
[12]
  glycan array binding signal (z-score): 0.048
[13]
  glycan array binding signal (z-score): -0.304
[14]
  glycan array binding signal (z-score): -0.252
[15]
  glycan array binding signal (z-score): -0.307
[16]
  glycan array binding signal (z-score): -0.206
[17]
  glycan array binding signal (z-score): -0.192
[18]
  glycan array binding signal (z-score): -0.208
[19]
  glycan array binding signal (z-score): -0.148
[20]
  glycan array binding signal (z-score): -0.197
[21]
  glycan array binding signal (z-score): -0.208
[22]
  glycan array binding signal (z-score): -0.193
[23]
  glycan array binding signal (z-score): -0.198
[24]
  glycan array binding signal (z-score): -0.235
[25]
  glycan array binding signal (z-score): -0.179
[26]
  glycan array binding signal (z-score): -0.212
[27]
  glycan array binding signal (z-score): -0.208
[28]
  glycan array binding signal (z-score): -0.145
[29]
  glycan array binding signal (z-score): -0.145
[30]
  glycan array binding signal (z-score): -0.25
[31]
  glycan array binding signal (z-score): -0.223
[32]
  glycan array binding signal (z-score): -0.173
[33]
  glycan array binding signal (z-score): -0.23
Neu5Ac(a2-3)GalNAc
  glycan array binding signal (z-score): -0.202
[34]
  glycan array binding signal (z-score): -0.206
[35]
  glycan array binding signal (z-score): -0.19
[36]
  glycan array binding signal (z-score): -0.207
